No constants are given. Whether binding was seen depends on the method and setting. Binding seen in cells or lysates may run through a third protein. Some results given as binding are weak or reduced against the parent protein; the word gives no strength. One block for each substance: values may come before it.
Experiments:
[1] = molecular target: FLAG-tagged wild-type FOXO1 (FOXO1-WT) (UniProt Q9R1E0); test: co-IP; 293T cells, endogenous FOXO1 silenced, FLAG-tagged FOXO1 vectors, hypoxia; cytoplasmic and nuclear fractions; IP, immunoblot
[2] = molecular target: FLAG-tagged wild-type FOXO1 (FOXO1-WT) (UniProt Q9R1E0); test: co-IP; NIH/3T3 cells, endogenous FOXO1 silenced, FLAG-tagged FOXO1 vectors, hypoxia; cytoplasmic and nuclear fractions; IP, immunoblot
[3] = molecular target: FLAG-tagged wild-type FOXO1 (FOXO1-WT) (UniProt Q9R1E0); test: co-IP; porcine GCs, FOXO1-siRNA 12 h, then FLAG-tagged FOXO1 vectors, hypoxia (1% O2) 12 h; cytoplasmic and nuclear fractions; IP with anti-FLAG-tag, immunoblot
[4] = molecular target: FOXO1 (endogenous, porcine granulosa cells) (porcine (endogenous in porcine GCs)) (UniProt A4L7N3); test: co-IP; endogenous proteins; cytoplasmic and nuclear fractions of GCs freshly isolated from 26 porcine follicles (~4 mm), grouped as low (L) or high (H) hypoxia by HIF-1α level; IP, immunoblot
[5] = molecular target: FOXO1 (endogenous, porcine granulosa cells) (porcine (endogenous in porcine GCs)) (UniProt A4L7N3); test: co-IP; endogenous proteins; cytoplasmic and nuclear fractions of cultured porcine GCs kept 12 h under normoxia (21% O2) or hypoxia (1% O2); IP with anti-FOXO1, Protein A/G magnetic beads, 4°C overnight, immunoblot
[6] = molecular target: FOXO1 (endogenous, porcine granulosa cells) (porcine (endogenous in porcine GCs)) (UniProt A4L7N3); test: co-IP; endogenous proteins, cells under hypoxia (1% O2); blot for p-STAT3 (Tyr705) (Fig. S8)
[7] = molecular target: FOXO1 (endogenous, porcine granulosa cells) (porcine (endogenous in porcine GCs)) (UniProt A4L7N3); test: co-IP; endogenous proteins, cells under normoxia (21% O2); blot for p-STAT3 (Tyr705) (Fig. S8)

Amino acid sequences for entries named in this document (tags omitted).
UniProt Q9R1E0: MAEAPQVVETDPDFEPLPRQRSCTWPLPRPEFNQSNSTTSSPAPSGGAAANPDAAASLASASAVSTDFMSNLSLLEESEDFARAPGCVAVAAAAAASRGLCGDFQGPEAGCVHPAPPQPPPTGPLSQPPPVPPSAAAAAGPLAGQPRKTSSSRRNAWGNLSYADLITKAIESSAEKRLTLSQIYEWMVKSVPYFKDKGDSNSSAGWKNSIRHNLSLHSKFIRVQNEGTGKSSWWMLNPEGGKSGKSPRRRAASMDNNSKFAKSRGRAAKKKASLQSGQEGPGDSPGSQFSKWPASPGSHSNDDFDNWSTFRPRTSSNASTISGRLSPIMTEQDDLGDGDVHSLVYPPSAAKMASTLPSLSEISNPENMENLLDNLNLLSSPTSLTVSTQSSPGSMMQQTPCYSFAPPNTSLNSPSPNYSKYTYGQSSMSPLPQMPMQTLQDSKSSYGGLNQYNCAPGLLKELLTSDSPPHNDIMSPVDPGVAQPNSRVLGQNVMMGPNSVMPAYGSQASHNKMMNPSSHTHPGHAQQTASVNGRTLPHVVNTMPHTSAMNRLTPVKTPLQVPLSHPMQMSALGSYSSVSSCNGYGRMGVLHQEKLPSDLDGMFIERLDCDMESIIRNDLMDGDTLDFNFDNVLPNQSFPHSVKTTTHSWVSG
UniProt A4L7N3: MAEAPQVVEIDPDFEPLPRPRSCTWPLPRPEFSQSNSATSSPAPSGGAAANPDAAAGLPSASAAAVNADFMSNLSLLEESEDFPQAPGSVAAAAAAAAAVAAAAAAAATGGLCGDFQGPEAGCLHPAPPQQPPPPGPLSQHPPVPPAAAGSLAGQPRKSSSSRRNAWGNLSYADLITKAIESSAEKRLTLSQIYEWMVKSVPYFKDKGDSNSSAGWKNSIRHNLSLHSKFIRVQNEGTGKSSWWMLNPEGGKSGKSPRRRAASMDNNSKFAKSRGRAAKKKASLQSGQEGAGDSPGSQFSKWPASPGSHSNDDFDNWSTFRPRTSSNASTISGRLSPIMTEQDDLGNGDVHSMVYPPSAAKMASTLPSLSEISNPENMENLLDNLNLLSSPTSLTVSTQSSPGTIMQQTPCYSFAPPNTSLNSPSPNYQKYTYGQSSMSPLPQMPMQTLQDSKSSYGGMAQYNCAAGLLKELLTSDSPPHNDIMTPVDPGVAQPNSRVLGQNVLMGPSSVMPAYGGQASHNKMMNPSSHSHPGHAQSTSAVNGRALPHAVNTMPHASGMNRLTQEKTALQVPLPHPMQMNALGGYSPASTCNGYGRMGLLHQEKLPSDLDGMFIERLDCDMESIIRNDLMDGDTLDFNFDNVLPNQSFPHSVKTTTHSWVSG
UniProt P31749: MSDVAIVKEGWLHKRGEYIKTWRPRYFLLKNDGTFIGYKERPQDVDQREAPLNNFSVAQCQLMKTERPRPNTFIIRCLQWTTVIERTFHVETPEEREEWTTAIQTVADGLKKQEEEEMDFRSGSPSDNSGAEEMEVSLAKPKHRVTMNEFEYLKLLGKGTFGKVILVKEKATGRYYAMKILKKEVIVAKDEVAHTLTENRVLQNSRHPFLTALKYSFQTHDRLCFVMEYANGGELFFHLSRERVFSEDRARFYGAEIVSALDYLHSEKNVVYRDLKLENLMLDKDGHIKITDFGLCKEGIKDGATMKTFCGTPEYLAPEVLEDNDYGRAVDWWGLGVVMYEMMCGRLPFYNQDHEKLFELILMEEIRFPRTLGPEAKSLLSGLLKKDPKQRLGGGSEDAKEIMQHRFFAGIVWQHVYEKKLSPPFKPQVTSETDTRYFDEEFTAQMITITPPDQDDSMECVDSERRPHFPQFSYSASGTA
UniProt P42227: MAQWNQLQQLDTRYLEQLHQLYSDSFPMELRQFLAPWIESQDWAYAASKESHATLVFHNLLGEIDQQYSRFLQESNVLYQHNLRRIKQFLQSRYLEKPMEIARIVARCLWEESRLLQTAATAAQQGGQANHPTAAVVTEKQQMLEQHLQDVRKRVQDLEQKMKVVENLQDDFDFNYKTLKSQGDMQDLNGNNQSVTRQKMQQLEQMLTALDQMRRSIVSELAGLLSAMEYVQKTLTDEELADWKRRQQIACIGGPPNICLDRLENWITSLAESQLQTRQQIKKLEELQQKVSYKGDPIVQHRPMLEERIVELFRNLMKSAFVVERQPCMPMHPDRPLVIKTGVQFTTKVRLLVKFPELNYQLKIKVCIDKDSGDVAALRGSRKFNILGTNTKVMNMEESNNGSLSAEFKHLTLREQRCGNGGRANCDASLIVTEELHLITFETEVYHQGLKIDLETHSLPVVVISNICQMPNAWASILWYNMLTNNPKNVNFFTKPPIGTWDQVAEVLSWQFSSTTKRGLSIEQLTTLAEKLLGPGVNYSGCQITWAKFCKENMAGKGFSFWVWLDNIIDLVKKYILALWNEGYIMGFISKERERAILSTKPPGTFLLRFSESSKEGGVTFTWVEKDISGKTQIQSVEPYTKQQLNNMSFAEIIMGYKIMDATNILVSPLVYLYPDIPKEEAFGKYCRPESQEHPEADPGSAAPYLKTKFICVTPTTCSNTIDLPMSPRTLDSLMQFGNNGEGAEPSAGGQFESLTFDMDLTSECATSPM
UniProt Q19S50: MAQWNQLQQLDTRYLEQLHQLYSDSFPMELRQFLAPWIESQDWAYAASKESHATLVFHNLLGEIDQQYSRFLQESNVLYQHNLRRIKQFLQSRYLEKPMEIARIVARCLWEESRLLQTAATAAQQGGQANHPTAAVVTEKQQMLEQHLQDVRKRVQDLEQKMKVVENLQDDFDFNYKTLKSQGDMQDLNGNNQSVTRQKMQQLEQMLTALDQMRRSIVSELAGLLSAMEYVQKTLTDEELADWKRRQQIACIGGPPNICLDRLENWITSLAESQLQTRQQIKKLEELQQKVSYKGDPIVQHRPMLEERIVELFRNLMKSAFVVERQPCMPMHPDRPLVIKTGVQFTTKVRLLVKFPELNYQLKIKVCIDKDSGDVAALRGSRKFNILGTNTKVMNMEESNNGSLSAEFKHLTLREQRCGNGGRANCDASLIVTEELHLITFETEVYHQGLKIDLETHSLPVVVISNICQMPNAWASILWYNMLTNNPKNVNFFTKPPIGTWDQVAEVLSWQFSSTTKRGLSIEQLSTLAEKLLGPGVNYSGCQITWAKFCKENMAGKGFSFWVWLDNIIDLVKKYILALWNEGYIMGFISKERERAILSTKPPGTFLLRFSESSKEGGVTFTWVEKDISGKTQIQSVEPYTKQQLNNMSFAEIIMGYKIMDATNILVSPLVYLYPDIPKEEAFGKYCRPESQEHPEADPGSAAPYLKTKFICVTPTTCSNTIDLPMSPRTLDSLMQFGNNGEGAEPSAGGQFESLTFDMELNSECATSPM
UniProt P40763: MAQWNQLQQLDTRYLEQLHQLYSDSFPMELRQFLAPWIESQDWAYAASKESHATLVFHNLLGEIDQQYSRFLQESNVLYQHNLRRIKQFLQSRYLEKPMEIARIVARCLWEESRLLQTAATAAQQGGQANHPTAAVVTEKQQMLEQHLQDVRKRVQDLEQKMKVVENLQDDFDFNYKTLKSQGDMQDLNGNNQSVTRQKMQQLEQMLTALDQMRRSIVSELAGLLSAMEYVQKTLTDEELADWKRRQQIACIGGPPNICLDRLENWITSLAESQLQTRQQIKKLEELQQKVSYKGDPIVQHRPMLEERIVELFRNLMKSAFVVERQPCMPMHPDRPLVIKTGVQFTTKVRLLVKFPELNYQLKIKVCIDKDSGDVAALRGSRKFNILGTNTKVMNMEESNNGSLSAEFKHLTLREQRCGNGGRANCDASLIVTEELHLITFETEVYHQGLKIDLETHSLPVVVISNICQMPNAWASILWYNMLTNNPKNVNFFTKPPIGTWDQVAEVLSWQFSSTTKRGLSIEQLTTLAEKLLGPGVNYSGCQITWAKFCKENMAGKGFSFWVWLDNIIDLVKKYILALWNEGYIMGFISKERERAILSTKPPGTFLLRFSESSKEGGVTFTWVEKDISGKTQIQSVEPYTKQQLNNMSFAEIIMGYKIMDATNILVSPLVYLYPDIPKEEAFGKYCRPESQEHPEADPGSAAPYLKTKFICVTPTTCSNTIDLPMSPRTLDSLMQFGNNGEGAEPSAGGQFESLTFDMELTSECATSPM

binding [1]: binds
Substance: AKT1 (endogenous, 293T cells) (from UniProt P31749 1-480)

binding [2]: binds
Substance: STAT3 (endogenous, NIH/3T3 cells) (from UniProt P42227 1-770)

binding [6]: binds
Substance: STAT3 phosphorylated at Tyr705 (endogenous, porcine granulosa cells) (from UniProt Q19S50 1-770)
binding [7]: no binding (condition: under normoxia (21% O2))

Second part, the substance before the results:

Substance: STAT3 (endogenous, 293T cells) (from UniProt P40763 1-770)
binding [1]: binds

Substance: STAT3 (endogenous, porcine granulosa cells) (from UniProt Q19S50 1-770)
binding [3]: binds | binding [4]: binds | binding [5]: binds

— PMC11628327
